The results in this text go back to the supplement of paper PMC11417369.

± gives the standard deviation of the averaged measurements. This is one part of the list.

The experiment relates to PfAP2-LT AP2 domain (GST-tagged). The experiment can be described thus: gcPBM binding intensity (ln(normalized median fluorescence intensity)); higher = stronger DNA binding. The procedure, abridged: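 GST-fused DNA-binding domains of P. falciparum, expressed in E. coli, were applied at about 25 μg on average for 1 h to an Agilent 4 × 180k array of primer-extended double-stranded 36-bp intergenic genomic probes and negative controls. Binding intensity is the highest Masliner-normalised natural-log median intensity across replicate spots of either probe orientation, measured with Alexa488 anti-GST antibody and a 488 nm scan.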
On to “GCTTGGATATATTAATGTACTTATATATTATGTTGT [XGTACX_site3768]”, for which the “gcPBM binding intensity (ln)” value came to 9.05 ± 0.4.
As to “CCAATTCAAATATGCACACAAATTTGAAAACGATTA [CACACA_site3607]”, the “gcPBM binding intensity (ln)” value worked out at 9.07 ± 0.33.
Regarding “CTTTTGCCCAAAAAGGTACACACCACAATGTACATA [CACACA_site809]”, the “gcPBM binding intensity (ln)” value was determined as 8.86 ± 0.43.
With “GTTAATATACATAAACGTACAGAATTATTATGAGTT [XGTACX_site5185]” the figure was 8.95 ± 0.35; with “TTTGTTGTTGTGAAACGTACTCATAGGATGTTGTAT [XGTACX_site5716]”, 8.83 ± 0.38; with “ATATTTTCAATGTTCACACATACACAAAAAAAAAAA [CACACA_site6077]”, 8.62 ± 0.4.
Regarding “AAAGATGGAGTGATATGTACTGATATATTATTATAT [XGTACX_site6500]”, the “gcPBM binding intensity (ln)” value amounted to 8.95 ± 0.26.
Take “AAGCATAAAGTATATAGTACATATATATATATATAT [XGTACX_site2945]”: the “gcPBM binding intensity (ln)” value was 9.43 ± 0.45.
As for “ATTAAAAAATCCATAGTGCACTACGATAGGTTCCGA [GTGCAC_site9463]”, the “gcPBM binding intensity (ln)” value amounted to 8.86 ± 0.35.
The figure for “TTTTTTATTGTGATACGTATATTATTTTATGATAAA [CACACA_negctrl_site1591]” is 8.52 ± 0.43; for “TAAAAATGTAAACACACACACATAAATATATTTTAT [CACACA_site5397]” it is 9.45 ± 0.26; for “ATATTTTAATTATAAAGTACATAAAAATATATAAAC [XGTACX_site6705]” it is 8.65 ± 0.45.
With “ATATAGTAAAGTTATACACACATGAATTTTCCCATA [CACACA_site7457]”, the “gcPBM binding intensity (ln)” value is 8.97 ± 0.45.
With “ATTCATATCTACTTCACACACATTTGATCATTCAAA [CACACA_site7207]”, the “gcPBM binding intensity (ln)” value came to 9.15 ± 0.4.
As for “ATGAAACAGTAACATTGTACTTTTACAAAAAAATAA [XGTACX_site806]”, the “gcPBM binding intensity (ln)” value worked out at 8.69 ± 0.41.
“ATAGTATTTTTTATTACACACAAATAAAAAGAAAAA [CACACA_site2087]”: the “gcPBM binding intensity (ln)” value is 8.75 ± 0.47.
Regarding “AAAATCTATATTAACACACACACAAAAAAAAAAAAA [CACACA_site6738]”, the “gcPBM binding intensity (ln)” value turned out to be 9.44 ± 0.41.
For “TACATATAAATAATAACACACACCTAGGTACATGGA [CACACA_site838]”, the “gcPBM binding intensity (ln)” value turned out to be 9.22 ± 0.42.
As to “TTTAAAAAAAATATGTGTACTTAATATTTTCATATA [XGTACX_site7421]”, the “gcPBM binding intensity (ln)” value was 8.41 ± 0.44.
With “CATACACAGAAACACACACACATATATATATATATA [CACACA_site4519]” the figure was 10.2 ± 0.3; with “AGAAAGGAGGAAATAAAAGGACTTCTTTTTTTATAT [CACACA_negctrl_site810]”, 8.44 ± 0.54.
“TTTCATTTCACAGACACACACACACCCTATATTTCC [CACACA_site3906]”: the “gcPBM binding intensity (ln)” value was determined as 9.82 ± 0.33.
For the sequence “ATATATATATATGTTAGTACTTATATTGAAATGGTA [XGTACX_site1406]”, the “gcPBM binding intensity (ln)” value was found to be 9.05 ± 0.042.
Consider “ATAAATAAAACAAAATGTACAAATATTCATATATTC [XGTACX_site1307]”, for which the “gcPBM binding intensity (ln)” value turned out to be 8.84 ± 0.49.
On to “ATATATTTTATATAGTGTACTTTAATTTTTTTTTTT [XGTACX_site5550]”, for which the “gcPBM binding intensity (ln)” value worked out at 8.5 ± 0.49.
With “ATTTTTTTTTTTTTTGAACACACATTATTAATTTTT [CACACA_site7990]” the figure was 8.8 ± 0.61.
The figure for “TTATTTACCTATTATAGTACATATAATTAATATAAT [XGTACX_site5724]” is 8.47 ± 0.4; for “ATCTTTCGTACATGTACACACAGAAAAAAAAAAAAA [CACACA_site2502]” it is 8.94 ± 0.41; for “GTTCCCATAAATAAATGTACATATTATATATATATA [XGTACX_site3242]” it is 8.85 ± 0.29.
As for “GTGTAATCATATAAGGGTACAAAAAATGTCTAACAA [XGTACX_site8122]”, the “gcPBM binding intensity (ln)” value was determined as 8.86 ± 0.52.
In the case of “TTACTAAACTTATATGTACACACATATAACATTAAT [CACACA_site8710]”, the “gcPBM binding intensity (ln)” value came out at 9.23 ± 0.46.
In the case of “GTAAAAATTTCATATTCACACACAAAAAAAAAAAAT [CACACA_site8457]”, the “gcPBM binding intensity (ln)” value worked out at 9.28 ± 0.42.
Take “TAAAAAAAAAAAAAAAGTACCCATACTATATTACAT [XGTACX_site946]”: the “gcPBM binding intensity (ln)” value came out at 8.51 ± 0.45.
As to “AGTAGTCTGGAGAAGAGTACATAGTATCTGATAACC [XGTACX_site2044]”, the “gcPBM binding intensity (ln)” value is 8.89 ± 0.56.
The figure for “AAGAATTTTACAAAATGTACTTATGTTTTGTTTTAC [XGTACX_site5632]” is 8.84 ± 0.5.
Consider “AATCCACAAAGACACACACACACATATATATATATA [CACACA_site1269]”, for which the “gcPBM binding intensity (ln)” value was determined as 10.2 ± 0.23.
On to “TAATTAATATATTTTTGTACTTATATATTTGCGTAT [XGTACX_site340]”, for which the “gcPBM binding intensity (ln)” value came to 8.88 ± 0.47.
With “AAAATTCTTCGGGGGAGTACAAGGATATTCTACGTT [XGTACX_site3974]” the figure was 9.24 ± 0.29; with “ATTTTTGATTTTAAAAGTACATAAGTATACTATTTA [XGTACX_site7162]”, 8.45 ± 0.36; with “TTTTGTAATTTTGTATGTACACATTAAAGTAATATG [XGTACX_site2401]”, 8.69 ± 0.48.
For “TTATAATATATATGTGGTACTTATTTATTTATTTAT [XGTACX_site7572]”, the “gcPBM binding intensity (ln)” value was determined as 8.72 ± 0.49.
Consider “ATAAATAAATTTATACGTACACATAATATATATATA [XGTACX_site4634]”, for which the “gcPBM binding intensity (ln)” value is 8.8 ± 0.38.
For the sequence AAAAATAAAATGATGGTGCACATAAAGTATGGTTAC, the “gcPBM binding intensity (ln)” value is 9.18 ± 0.42.
As for “TTGTTCTATAATTATACATGCATTAACAGAGTAAAA [TGCATGCA_site909]”, the “gcPBM binding intensity (ln)” value amounted to 8.49 ± 0.37.
For the sequence “ATATATATATATATATGTACATATATTTTCTTTTTG [XGTACX_site6017]”, the “gcPBM binding intensity (ln)” value turned out to be 9.54 ± 0.6.
As for “TTTTTTTTTTTTTAATGTACAAATATGGTGACAAAA [XGTACX_site8709]”, the “gcPBM binding intensity (ln)” value amounted to 8.19 ± 0.4.
In the case of “AAAAACGATTAATGTGTACACACATAGTTATAAACA [CACACA_site8659]”, the “gcPBM binding intensity (ln)” value turned out to be 9.27 ± 0.38.
Turning to “AGGATAACATACAAAAGTACATAAAACTAAAAAAAC [XGTACX_site26]”, the “gcPBM binding intensity (ln)” value turned out to be 9.12 ± 0.49.
“AAGAAAATATAACAAAGTAAAAACATATTATATATA [TGCATGCA_negctrl_site248]”: the “gcPBM binding intensity (ln)” value came out at 8.74 ± 0.38.
With “TATATATATTTTTGAAGTACTTATTACACTAGCATT [XGTACX_site8965]”, the “gcPBM binding intensity (ln)” value worked out at 8.75 ± 0.41.
The figure for “TATATTTTGTTTTTGTGTACATATTGGTAGTTATTT [XGTACX_site7659]” is 9.01 ± 0.52; for “AATGTGGTATTTACAAAAAGGCTTTATACTTAAAAA [XGTACX_negctrl_site566]” it is 8.45 ± 0.51.
With “TGATTATCCTATATATATTTCATAATGGAAAAAAAT [TGCATGCA_negctrl_site444]”, the “gcPBM binding intensity (ln)” value came out at 8.35 ± 0.45.
Take “AAAAATAGTCTTCTTGCACTTTTTAATTTATTTTAA [CACACA_negctrl_site1322]”: the “gcPBM binding intensity (ln)” value came out at 8.36 ± 0.45.
With “CTTTTCATCTTCTTAACACACAAAAAAAAAAAAAAA [CACACA_site3886]”, the “gcPBM binding intensity (ln)” value worked out at 8.33 ± 0.41.
Regarding “TATATTTATATACCAACACACATACATATTTATATA [CACACA_site6931]”, the “gcPBM binding intensity (ln)” value was found to be 8.92 ± 0.34.
With “AAAATTCAGCGAAAGGGTACATATGTGTAAGGGTAA [XGTACX_site8205]” the figure was 9.22 ± 0.45.
